Measurements: the supplement of paper PMC3334620
Over roughly 33,000 sequences, “E-score (-0.5 to 0.5)” has its median near -0.021; the highest 2% begin near 0.32. The list shows a part of the results.

Each sequence was assayed against T1, Zap1 (UniProt P47043) (assay: PBM E-score (8-mer binding enrichment) (E-score (-0.5 to 0.5)); higher = stronger / more preferred TF binding; most listed sequences are background and not binding sites). Conditions: protein concentration: 200 nM; construct: GST-full length.
T1 sequence: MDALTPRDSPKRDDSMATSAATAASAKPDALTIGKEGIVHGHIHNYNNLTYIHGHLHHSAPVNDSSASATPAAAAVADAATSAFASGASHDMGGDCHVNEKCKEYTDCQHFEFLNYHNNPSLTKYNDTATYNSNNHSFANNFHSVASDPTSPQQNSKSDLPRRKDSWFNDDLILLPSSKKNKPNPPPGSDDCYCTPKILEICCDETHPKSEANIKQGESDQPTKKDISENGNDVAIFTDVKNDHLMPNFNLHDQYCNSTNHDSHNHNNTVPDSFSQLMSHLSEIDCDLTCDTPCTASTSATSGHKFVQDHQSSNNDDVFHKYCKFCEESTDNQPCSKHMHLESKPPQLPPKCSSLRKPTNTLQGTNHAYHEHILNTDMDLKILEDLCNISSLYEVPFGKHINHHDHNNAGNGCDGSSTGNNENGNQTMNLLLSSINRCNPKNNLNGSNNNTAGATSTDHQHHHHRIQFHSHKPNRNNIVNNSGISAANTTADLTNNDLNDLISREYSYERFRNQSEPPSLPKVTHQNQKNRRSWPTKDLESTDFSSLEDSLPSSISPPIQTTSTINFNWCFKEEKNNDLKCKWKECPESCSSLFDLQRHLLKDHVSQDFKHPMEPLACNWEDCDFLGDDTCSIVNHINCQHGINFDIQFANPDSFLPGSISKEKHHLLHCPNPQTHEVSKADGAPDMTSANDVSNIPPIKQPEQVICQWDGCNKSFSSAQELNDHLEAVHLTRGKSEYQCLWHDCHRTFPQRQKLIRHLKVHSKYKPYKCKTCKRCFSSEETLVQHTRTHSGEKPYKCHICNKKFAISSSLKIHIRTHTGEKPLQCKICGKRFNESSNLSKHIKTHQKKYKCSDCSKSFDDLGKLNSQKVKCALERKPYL
Outline: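 E-scores (a modified Wilcoxon-Mann-Whitney statistic) were assigned by the Universal PBM Analysis Suite to every ungapped eight-base word pooled with its reverse complement. The input came from universal all-10-mer Agilent arrays made double-stranded by primer extension and probed with GST-tagged yeast transcription factors at about 100-200 nM. Fluorescent anti-GST detected bound protein, and masliner normalised the scans.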

Sequence | PBM E-score
CTCGCAGC | -0.0472
GTTACTTA | 0.19
AGTTTTAG | 0.084
GCGCCCGA | -0.181
AAGACGCA | -0.128
TAGCGACA | 0.0403
CACCAGAG | -0.189
AAATAAGG | 0.0515
AGCTCCAC | -0.261
AGGAAGAC | -0.258
ACACGATG | -0.225
GGTATAAC | 0.265
ACGCCTCA | -0.12
ATCGGCGC | -0.15
GCATTAAC | -0.00696
TCGGGGCA | -0.247
TCATCGGA | 0.0515
GTGCTTAA | 0.133
CCAGAAGG | 0.198
ACATTTTC | 0.0824
GACCTCCC | -0.141
ATCGTCAC | 0.0385
CGCTAACC | 0.312
TAGGATAA | 0.0934
GGACATGA | -0.0621

Sequence | PBM E-score
ATCCTAAA | -0.00991
ACAACTAA | 0.13
GCAAGTCA | 0.0207
ACTGACAA | 0.0776
ACCTAATA | 0.18
GTGACATA | 0.0357
CTCCAGAG | -0.135
CCTCCTAG | -0.189
AGGACTGG | -0.0435
ACCAAGGG | 0.178
AATTCAAA | 0.126
GGGTGTAA | 0.0228
AGGGTGCC | 0.206
GGTCGCGA | 0.32
ATAGTCAA | 0.0862
CACAAAGG | 0.26
AGCAGACA | -0.173
ACGGACAT | 0.078
CCCAGTCC | -0.0737
CCACAGCC | -0.17
CCCACTGA | -0.0683
CACGGAAA | -0.00494
ATCACAAT | -0.0122
GAGTCCGC | -0.0903
TAGATGGA | -0.292

Sequence | PBM E-score
GGACGCAC | -0.0516
GTAGAATA | 0.0509
TCCACGCA | 0.0249
ACGTGACG | -0.122
CTAGCAAC | -0.0149
CAGCTCGG | -0.188
ACACGAAT | 0.0376
GTATCGGA | -0.0886
AAGCCAGA | -0.16
AACCTAAT | 0.204
ATTCCGCG | 0.0798
ACTACCGA | -0.166
CTGCCTGA | -0.0301
AATATGAA | 0.0666
ATCGTTGA | 0.0303
AGCATTAG | -0.0181
CACCTTAG | 0.245
ATCGTCAA | -0.0259
CTCTCTGC | -0.139
ACCCACGT | 0.0775
AAACGGTA | 0.228
ACATTTAT | -0.0887
GCTCTTTA | -0.113
ACGGACTC | -0.272
GCAACCCC | 0.342

Sequence | PBM E-score
ACTGAGAA | -0.0474
ATGACGAG | -0.244
ATAAATGG | 0.107
CGGGATTA | -0.0545
GAATAGTA | 0.159
CGTATCCA | -0.133
AGTAAATC | 0.106
GGATAAGA | -0.0507
AACACGCC | -0.175
AAGATTGA | -0.0233
GAAATGTC | -0.295
CACTCCCG | -0.298
CGGACAAG | -0.141
CTAAGAAG | 0.137
CAAACCCA | 0.2
GAGCGACC | -0.0743
ACATGGTA | 0.111
AATTATCC | 0.0783
ATCAAAGG | 0.0999
ATGAGACC | 0.0567
ACGCCATC | -0.168
CAAGGGCA | -0.182
ATTCATGA | 0.0897
CCACCGAA | 0.192
ATGGCCAA | 0.0886

Sequence | PBM E-score
GTGTAATA | 0.0548
GCGGGCCA | -0.187
TACATTAA | 0.302
AGATTTAG | 0.173
CTCTTGTC | -0.0842
TACTGGGA | 0.0284
TGTGTTAA | 0.0894
ACCCGAGG | 0.297
AGTGCGAC | -0.109
CGAAAGAA | 0.137
AGCGAGGG | -0.0631
CCATTATA | 0.179
ATGGTTTA | 0.191
CTCGTTGC | 0.211
GTACAACA | 0.185
GTACACAA | 0.12
CTATGACA | -0.117
GCAGGAAC | -0.181
CATGCCGG | -0.116
CGCGTTCA | 0.153
ATACATGC | -0.216
CGTCTTGA | 0.0342
AACAGAAA | 0.202
ACGATGGC | -0.0959
CGAGCCTC | -0.322

Sequence | PBM E-score
CCGCAGGA | -0.076
ACGCCTCT | -0.0358
CGCCGATA | -0.0619
ATCGCGCG | 0.125
ACCGAAGC | -0.11
ACGAAGGC | -0.382
AGGCGACC | 0.0543
GATCATCA | -0.01
ACAGAAGT | -0.0353
ATCGATCA | -0.0301
TCACCTGA | -0.0817
GCCAGCCC | -0.204
CCATGGAC | 0.0921
CCGTAAAC | 0.197
ATGTGGGA | -0.139
AATTTGCG | -0.025
GCTGTACA | -0.181
GAACATTC | -0.174
CTTGACAA | 0.0636
GAGGCGAA | -0.123
CGAGGGTC | 0.245
GGCCTGAC | -0.0811
ACATTAGG | 0.0931
CACTGGAA | -0.011
GAGCGAGA | 0.0493

Sequence | PBM E-score
ATTCTTTC | -0.0304
AAGCTCGT | -0.163
GACAAGCA | -0.193
ACTGGAAA | 0.14
AAGCACCA | -0.142
AATGCCCG | -0.153
CCTCTGCC | -0.33
ACCAATAG | 0.0471
CGAATGTC | 0.0201
AGTGCTTG | -0.00778
CTCTCCTA | -0.129
AACATACG | 0.125
ATTTGCCG | -0.168
CGAGTTTC | -0.0942
ACGGCGTG | -0.163
AGTGGTTG | 0.312
GAAGGACC | 0.1
GAATAGCC | -0.103
AACAGCGA | -0.0959
ATGAACAA | 0.0884
AATAGGCA | -0.128
GAGGCTAC | 0.0381
